From the supplement of paper PMC11417369 come the findings set out here.

± gives the standard deviation of the averaged measurements. Some of the results follow.

The assay concerns PfAP2-G AP2 domain (GST-tagged). The experiment in a line: gcPBM binding intensity (ln(normalized median fluorescence intensity)); higher = stronger DNA binding. The gist of the method:
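The highest Masliner-normalised natural-log median intensity across replicate spots of either probe orientation is reported as binding intensity. GST-tagged P. falciparum DNA-binding domains expressed in E. coli were applied for 1 h to an Agilent 4 × 180k array of primer-extended double-stranded 36-bp intergenic genomic probes plus negative controls, and bound protein was detected with Alexa488 anti-GST antibody and scanned at 488 nm.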
“AAAATAATGTATATAGTGCAAATGAAAACGAAAAAA [GTGCAC_site9455]”: the “gcPBM binding intensity (ln)” value is 10.17 ± 0.071.
For “CATAATAAGTATAACGTTAGTTACAAACAGCTTGTT [CACACA_negctrl_site937]”, the “gcPBM binding intensity (ln)” value worked out at 9.92 ± 0.085.
Turning to “TTTGTTTTTTTGAGAGTGCAATATATATAAAAAGGG [GTGCAC_site9691]”, the “gcPBM binding intensity (ln)” value stood at 10.5 ± 0.47.
For the sequence “TTGGTGATATTTTTCTCACACATTTACCAGAGATGT [CACACA_site4684]”, the “gcPBM binding intensity (ln)” value came to 9.995 ± 0.035.
The figure for “TTTTTATTTTTTTACAGTACATAAAATAAATAAATA [XGTACX_site6596]” is 11.1 ± 0.91; for “TTTTTTTTATGGAAACGTACATACATACATTAAAGA [XGTACX_site7401]” it is 11.3 ± 0.95.
With “GTAGATATTTATTGAGTGCATGTTATAAAGGGAAAA [GTGCAC_site9481]”, the “gcPBM binding intensity (ln)” value stood at 10.21 ± 0.035.
The value for “TATATTGATGATGATAGTACGTATGAATACAAAAAA [XGTACX_site4]” was 11 ± 0.65; that for “TATTTATATATTTATGCATGTTATAGGCAAAAATGT [TGCATGCA_site397]” was 10 ± 0.16.
“CACCCACCCAGACACACACACACACCCCCACCCATA [CACACA_site367]”: the “gcPBM binding intensity (ln)” value was determined as 11.1 ± 0.62.
The value for “TTTTTTTGCATGAGCAATAAAAAAGGCTTGTTCAAA [CACACA_negctrl_site1615]” was 9.74 ± 0.16; that for “AATTATTTATTGAGAGTGCAACAAATTATTTCAAAT [GTGCAC_site9461]” was 10.1 ± 0.22.
The figure for “ACATTTTAAATACGATGTACTTGAGTTTTTTTTAAA [XGTACX_site5833]” is 11 ± 0.53.
For “TATATGAATAAACATTGTACGTAAATATTAACTATC [XGTACX_site543]”, the “gcPBM binding intensity (ln)” value worked out at 11.5 ± 1.
The value for “GAAATAAAAGATGGTTGTACACCGTTTTCTCATATA [XGTACX_site5368]” was 11.5 ± 0.89; that for “TACATATATGATAAAAGTACATATAAATATACATAA [XGTACX_site3804]” was 11.3 ± 0.87; that for “TTATATATTAAGAAATGTACGAAAAAAAAAATTATA [XGTACX_site3893]” was 10.9 ± 0.53.
Take “AAGATGATAAAATATGTACACACAGTTTATACATTT [CACACA_site9341]”: the “gcPBM binding intensity (ln)” value is 11.3 ± 0.83.
The value for “TATAATAATAATAATAATAATAATAATAATAATAAT [CACACA_negctrl_site905]” was 9.38 ± 0.19; that for “CGCATAAAGACAAGAACACACATATAGATTGTAGTA [CACACA_site3693]” was 9.84 ± 0.19.
As for “TCAATAAGATTATAAAGTACTTTTGAAGATATTATA [XGTACX_site7489]”, the “gcPBM binding intensity (ln)” value came out at 10.9 ± 0.47.
For the sequence “TTTCTTATTTTTTTCACACACTAAACATTTCAAATG [CACACA_site5259]”, the “gcPBM binding intensity (ln)” value was 10.3 ± 0.21.
The value for “AAATATTTAAATATTATGTATGATTATATATATATA [CACACA_negctrl_site590]” was 9.77 ± 0.28; that for “AAATAAATAAATAAATGTACACATATATATATATAT [XGTACX_site7787]” was 11.3 ± 0.67; that for “AAAAAAAAAAAAAAAACACACAAAAGCAAGAAAAAC [CACACA_site3198]” was 10.3 ± 0.26.
Regarding “AAAGTAAAAACACATACATGCATATACACATATAAC [TGCATGCA_site341]”, the “gcPBM binding intensity (ln)” value stood at 9.9 ± 0.12.
The figure for “ATAAATATGTATTGCTGTACATATATATAAATTATC [XGTACX_site8411]” is 11.2 ± 0.75; for “AATAGGAAAACCTATACACACTTTAAAAAAAATATA [CACACA_site4977]” it is 9.785 ± 0.007.
The figure for “AAAGAGAACATAAGTACACACATGTTCTTTTAGTAA [CACACA_site2824]” is 11.4 ± 0.93; for “TTTTTGCCATATTACACACACACATGGAAACCCCCT [CACACA_site4994]” it is 11.1 ± 0.64; for “TAAAAAATTTTCGCGTGTACGCAAGAAAAAAAAAAT [XGTACX_site3058]” it is 11.6 ± 0.84.
Regarding “TAAAAAATAAGATATACACACATATATTTATTTATA [CACACA_site7158]”, the “gcPBM binding intensity (ln)” value came to 9.62 ± 0.11.
The figure for “CAAATAAATTAAAGGTGTACTTTTATAGTTACGACA [XGTACX_site3926]” is 11.4 ± 0.81; for “CATATTTTCTTGTGTACACATTTATTTTATACTATA [CACACA_site6032]” it is 11.7 ± 0.97; for “TATATATTTAGTTAGTGTACAAGTTATTTAGTAGTT [XGTACX_site5133]” it is 11.3 ± 0.91.
The figure for “TCTTTTAACAAATAATAAGCTAATTTATATTATTAT [GTGCAC_negctrl_site655]” is 9.49 ± 0.21; for “AAAAAAATAATGTATATATAAATTTATTTACATATG [GTGCAC_negctrl_site107]” it is 9.73 ± 0.042; for “GGTACGTATTTCAATGCATGTCCATGTACATATAAA [TGCATGCA_site208]” it is 11.6 ± 0.41.
With “ATTGCGTGATAATAATGTACAAAAAGTAATTTATAT [XGTACX_site8339]”, the “gcPBM binding intensity (ln)” value is 10.7 ± 0.33.
The value for “TCATTCTAAATATAAACACACATAAATATATACATT [CACACA_site3354]” was 9.905 ± 0.092; that for “AATATATAATTTTTAACACACAAAAAAAAAAAAAAT [CACACA_site3581]” was 9.9 ± 0.18; that for “AAAAAAAAAAAAAAAACACACACATATAATATATTT [CACACA_site8369]” was 10.3 ± 0.3.
On to “CATACGTTCTAATATATACACACCTGGTATTAATTA [CACACA_site2221]”, for which the “gcPBM binding intensity (ln)” value was determined as 10.04 ± 0.021.
“CTATAATGTTTCTTTCAACACACAAAAAATGAACAC [CACACA_site8438]”: the “gcPBM binding intensity (ln)” value came out at 10.4 ± 0.26.
The value for “TATGCACAGAAACACACACACACAACCAAAAAATAA [CACACA_site5425]” was 10.2 ± 0.28; that for “AAAAAAAAAAAAAAAAGTACAAAAATATATATGCAT [XGTACX_site8392]” was 11.4 ± 0.75; that for “CAGAATATATTCTATACATGCAATAGGAAATGTAGC [TGCATGCA_site110]” was 10.2 ± 0.11.
On to “TTTTTATTTATATGTATACACACTTTAATTAAAAGT [CACACA_site2525]”, for which the “gcPBM binding intensity (ln)” value amounted to 10.34 ± 0.071.
The value for “TGTTATATATAAATTTGTACACATAAATATTTTTAC [XGTACX_site5873]” was 11.4 ± 0.78.
The figure for “AATAAAAAAAAATGCACACATATATATATATATATA [CACACA_site2421]” is 10.2 ± 0.6; for “TTAAACTTGAAACACACACACACACCCATATAAAAA [CACACA_site758]” it is 10.3 ± 0.38; for “AATGTGTAGGTAAGATAATTTTTGTTTTTTTATTTG [CACACA_negctrl_site424]” it is 9.94 ± 0.042.
With “ATATTTATAATATAGAGTACTTACTAAGTTATGGGT [XGTACX_site5405]”, the “gcPBM binding intensity (ln)” value was determined as 11.2 ± 0.71.
The figure for “AAATTTTCTTAAGGTTGTACTTTTTGAAAATAATCT [XGTACX_site4894]” is 11.3 ± 0.9; for “TGTAGTCTGGAGAAACGTACATAGTATCTGGTAGCT [XGTACX_site2538]” it is 11.1 ± 0.79; for “TAATGGAATAAAAATTGTACATATTTTTTTTTTTTT [XGTACX_site7669]” it is 11.1 ± 0.71.
Consider “GAATTTCAACAAAGTAGTACATTTTATAGTAATTGG [XGTACX_site2319]”, for which the “gcPBM binding intensity (ln)” value is 11.4 ± 0.79.
As to “ATAAATATGTTCTGCACACAAATAAGTGTTTGAAGT [CACACA_site3892]”, the “gcPBM binding intensity (ln)” value was determined as 10.2 ± 0.24.
On to TCATAGGGGTAGAAGGTGCAATAAAAAAGAAGAAAA, for which the “gcPBM binding intensity (ln)” value worked out at 10.5 ± 0.59.
As to “TATAATATATCTGTAACACACAAAAGTTATATACTT [CACACA_site5578]”, the “gcPBM binding intensity (ln)” value stood at 9.855 ± 0.064.
The value for “TTTTTTTCTCTCTCTACACACAAGGTTTAATTTAAA [CACACA_site1690]” was 10.2 ± 0.26; that for “AACTCACGAGGACACACACACATATATATATATATA [CACACA_site4711]” was 11.4 ± 0.98.
The value for “ACATACATACATACATACATACATACATACATACAT [XGTACX_negctrl_site315]” was 10.6 ± 0.57; that for “AGTCATAAATTTATTTGTACATATAATATATATATA [XGTACX_site8489]” was 11 ± 0.68; that for “ATAAACAAAAAAAAAAAATATATCAATATATATATA [CACACA_negctrl_site299]” was 9.51 ± 0.38.
On to “AAAATATATAATTTTTAACACACAAAAAAAAAAAAA [CACACA_site9192]”, for which the “gcPBM binding intensity (ln)” value amounted to 9.54 ± 0.18.
The figure for “TGCCATATATATATTAAATACATAATAATGAGCCTA [GTGCAC_negctrl_site10]” is 9.59; for “TTCATTGTGTTAACGGTGCATATATTTTTTCACCGT [GTGCAC_site9464]” it is 9.93 ± 0.057.
As for “ATGTTATATTTTTTTATACACACTGGGATATATAAA [CACACA_site6244]”, the “gcPBM binding intensity (ln)” value is 10.1 ± 0.14.
The figure for “AATCAAATTTTCAAGTCGCACCAAACAAAAAAATGA [CACACA_negctrl_site1397]” is 10.2 ± 0.25; for “TATTTAATTAATATAATATTAAACGGAAAAGATAAA [TGCATGCA_negctrl_site148]” it is 10.1 ± 0.18; for “TTTTTCTTTTTTTTTTTAATAATATATAACAAATTT [CACACA_negctrl_site1724]” it is 9.68 ± 0.13.
Regarding “TAAAAATATAAAAAGTGTACAATATATAAATTAATA [XGTACX_site1606]”, the “gcPBM binding intensity (ln)” value turned out to be 11.3 ± 0.67.
“ATATTAAAAAAATATGCATGCAAATATTATTTTGTA [TGCATGCA_site191]”: the “gcPBM binding intensity (ln)” value is 9.56 ± 0.16.
The figure for “ACATCATTTTTATGTACACACACATATACGTTGAAT [CACACA_site5095]” is 11.6 ± 0.98; for “GAAGTATTATTAAAGCTGCACTTTTCTAAAATAAAC [GTGCAC_site9429]” it is 10.2 ± 0.28.
The figure for “AAATGCGTATATAACGCATGTATAAGAACATTTTTT [TGCATGCA_site225]” is 9.88 ± 0.2; for “TTATAATCTATACATATATATGTATGTATGTCTCAA [CACACA_negctrl_site1702]” it is 9.84.
The value for “GCAGTATGCGATCAGTGTACGAGTTATTTTATAAAA [XGTACX_site4764]” was 11.3 ± 0.85.
Consider “CATTAATTTAATAAATGTACATAAAATATATATTAT [XGTACX_site8085]”, for which the “gcPBM binding intensity (ln)” value was found to be 11.3 ± 0.75.
As for “TAAAATTTACAACACTGTACTTGAATTTATCTTTAA [XGTACX_site241]”, the “gcPBM binding intensity (ln)” value stood at 11.2 ± 0.75.
The figure for “GTTATACACATATATACACACATATGTAAATATATA [CACACA_site9080]” is 9.92 ± 0.071.
The figure for “CTAATATATGTATGCACACACAATATATACATATTT [CACACA_site3360]” is 10.07 ± 0.021.
The figure for “ATATTACAAATATAATGTACAAAATATAAATATGCA [XGTACX_site8106]” is 10.7 ± 0.42; for “GTCCTTACTAATTAATTTTAGGCCATATAGTTTGTC [XGTACX_negctrl_site199]” it is 10.3 ± 0.17.
Regarding “ATTATGGATACATAAACACACATATATATAAAAAAA [CACACA_site4303]”, the “gcPBM binding intensity (ln)” value was 10.2 ± 0.3.
Regarding “ACATGATAAATAGTCACACATAAATATAATATATAT [CACACA_site5207]”, the “gcPBM binding intensity (ln)” value stood at 10.1 ± 0.28.
The figure for “TCGTAAACTTTATGCACACACATATACATATTTCAT [CACACA_site739]” is 10.16 ± 0.064.
